Measurements taken from PubChem BioAssay AID488969 (Vanderbilt High Throughput Screening Facility, 2010).
The full ranking holds about 110,000 compounds; the median of “z-score” is about -0.1, and the highest 2% start at about 2. The list shows a part of the results. Calls of active or inactive are those of the source.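 The calls were made as follows: active = z-score in the third read window above 3 or below -3; inactive = the rest.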

Target: Metabotropic glutamate receptor 8 (Rattus norvegicus) (UniProt P70579)
Sequence of UniProt P70579 (P70579 whole entry, looked up): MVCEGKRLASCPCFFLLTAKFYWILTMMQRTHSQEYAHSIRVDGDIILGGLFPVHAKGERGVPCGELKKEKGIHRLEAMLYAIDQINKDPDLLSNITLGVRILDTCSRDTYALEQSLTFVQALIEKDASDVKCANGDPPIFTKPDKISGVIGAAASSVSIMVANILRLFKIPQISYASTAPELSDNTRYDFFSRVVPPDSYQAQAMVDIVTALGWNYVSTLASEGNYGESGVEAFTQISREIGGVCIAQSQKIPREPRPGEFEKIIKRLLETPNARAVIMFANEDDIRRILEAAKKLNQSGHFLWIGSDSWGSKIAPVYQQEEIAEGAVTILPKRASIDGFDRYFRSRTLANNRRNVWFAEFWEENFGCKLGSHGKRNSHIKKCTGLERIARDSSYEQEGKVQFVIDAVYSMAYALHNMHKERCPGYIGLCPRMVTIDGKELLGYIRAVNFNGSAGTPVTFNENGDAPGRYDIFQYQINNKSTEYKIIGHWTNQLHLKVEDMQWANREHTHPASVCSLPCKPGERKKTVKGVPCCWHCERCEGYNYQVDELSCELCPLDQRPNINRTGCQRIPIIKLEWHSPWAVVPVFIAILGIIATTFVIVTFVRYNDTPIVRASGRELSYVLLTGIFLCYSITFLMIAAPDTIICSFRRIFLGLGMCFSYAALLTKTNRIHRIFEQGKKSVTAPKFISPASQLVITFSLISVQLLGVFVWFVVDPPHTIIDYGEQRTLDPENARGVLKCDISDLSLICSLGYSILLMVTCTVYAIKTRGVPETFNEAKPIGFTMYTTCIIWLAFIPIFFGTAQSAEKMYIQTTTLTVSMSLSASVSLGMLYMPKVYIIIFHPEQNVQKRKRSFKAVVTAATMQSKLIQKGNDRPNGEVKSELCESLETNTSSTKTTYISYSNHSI
Assay: mGluR8 Gi/Go-coupled signaling modulation – cell-based, rat, thallium flux, HTS, primary screen (AID 488969)
Settings: HEK293 rat mGluR8, GIRK (G protein-gated inwardly rectifying potassium channel) thallium flux, FluoZin2; at 10 µM; stronger effect = higher value; submaximal glutamate (EC20) added with thallium

Structure (SMILES)	z-score
COc1cccc(C(=O)Nc2cccc(OC(C)=O)c2)c1	-0.0655
CCCn1c(/C=C/c2ccccc2)nc2ccccc21	-0.265
O=C(N/N=C/c1ccc(Sc2nc3ccccc3s2)c([N+](=O)[O-])c1)c1ccccn1	-0.00781
CCOC(=O)c1cc2sccc2n1CC(=O)N1CCCC1	-0.278
Cn1c(SCCN2CCCCC2)nnc1-c1ccccc1Br	0.248
CCCCN(C)C(=O)c1sc2ncn(CC)c(=O)c2c1C	0.571
c1ccc(-c2csc3ncn4nnnc4c23)cc1	-0.177
O=C1C2CC=CCC2C(=O)N1c1n[nH]c(-c2ccccc2)n1 (stereo unspecified)	1.11
c1coc(-c2nnc3n2C2(CCCC2)Cc2ccccc2-3)c1	-0.581
COc1nc(N(CC(N)=O)S(=O)(=O)c2ccccc2)nc(C)c1Cl	0.0517
Cc1ccc(S(=O)(=O)CNC(=O)c2ccccc2)cc1	0.081
Cc1ccc(N(CC(O)Cn2nc(C)cc2C)S(=O)(=O)c2ccc3ccccc3c2)cc1 (stereo unspecified)	-0.205
COC(=O)C(C)Sc1nnc(Cc2cc(=O)[nH]c(=O)[nH]2)n1-c1ccc(Cl)cc1 (stereo unspecified)	-0.153
CCOc1ccc(OCc2ccc(C(=O)Nc3cccc(C)n3)o2)cc1	-0.284
Cc1ccc(O)c(NC(=O)CCC2CCCCC2)c1	-0.0619
CC(C)c1ccc(/C=C/C(=O)NNC(=O)c2cccnc2)cc1	-0.0443
CCOC(=O)C1CCN(S(=O)(=O)c2c(C)n[nH]c2C)CC1	-1.56
Cc1cc(-c2ccc(F)cc2)nc2cc(C(N)=O)nn12	0.242
CC(C)c1ccc(N(C(=O)C(F)(F)F)C(C(=O)NC2CCCCC2)c2ccncc2)cc1 (stereo unspecified)	-0.106
CN1CCCN(Cc2ccc(Cl)cc2Cl)CC1	0.524
CC(=O)/C(=N\Nc1ccc(C)cc1)Sc1nncn1C	0.125
O=C(CCCn1c(=S)[nH]c2ccccc2c1=O)NCc1ccco1	0.0361
O=C1CN(C(=O)CSc2nc(-c3ccc(Cl)cc3)cs2)c2ccccc2N1	-0.0789

Structure (SMILES)	z-score
CCCCn1c(N)c(C(=S)NC(=O)CC(C)C)c(=O)n(C)c1=O	active: 3.59
CCCOc1ccc(C(=O)NNC(=S)NC(C)=O)cc1	0.435
Cc1cc(C)c(Cn2c(=O)n(CCCC(=O)NCc3ccco3)c(=O)c3ccccc32)c(C)c1	-0.0113
O=C(NCCc1c[nH]c2ccccc12)C(F)(F)F	-0.0521
O=C(Nc1ccc2c(c1)OCCO2)C1CCCN(S(=O)(=O)c2cnc[nH]2)C1 (stereo unspecified)	-0.0274
Cc1noc(C)c1S(=O)(=O)N1CCC(C(=O)NCCc2ccc(S(N)(=O)=O)cc2)CC1	1.52
CC(C)N(Cc1nc(-c2ccc(Cl)cc2)no1)C(=O)CN(C)S(=O)(=O)c1ccc(Cl)cc1	-0.125
CCCCCCCCCCCCCCCC[n+]1cccc2ccccc21	0.977
CC(=O)c1c(C)c2c(n1CCN(C)C)CCCC2	-1.8
O=C(NCCCN1CCOCC1)c1cccnc1	-0.0295
CCOc1ccccc1NC(=O)/C(C#N)=C/c1c(C)nn(-c2ccc(F)cc2)c1Cl	-0.00825
Cc1cccc(C)c1NC(=O)CS(=O)CC(=O)NC1CCN(Cc2ccccc2)CC1 (stereo unspecified)	-0.159
COC(=O)N(C)c1ccccc1C(=O)N1CCOCC1	0.084
Cc1cc(CCCCCCCCc2cc(C)cc(=O)o2)oc(=O)c1	-0.454
O=S(=O)(/N=C(/Nc1ccc(F)c(F)c1F)c1ccccc1)c1ccccc1	-0.125
CCN1CCCC1CNC(=O)C(=O)Nc1ccc(OC)cc1 (stereo unspecified)	0.521
CCCC1Cc2c(sc3ncnc(N)c23)CO1 (stereo unspecified)	1.57
Clc1ccc(-c2noc(CCCc3ccccc3)n2)cc1	-0.0738
Cc1cc(NC(=O)CN2CCN(c3ccccc3O)CC2)no1	0.0808
Cc1ccc(NC(=O)/C(=C\c2cccs2)NC(=O)c2ccccc2)cc1	-0.33
O=C(CCn1c(=O)oc2ccccc21)Nc1nc2ccccc2s1	-0.202
COc1cc(S(=O)(=O)N2CCCCC2)ccc1NC(=O)c1ccc(F)cc1	-0.221
O=C(COC(=O)C1(c2ccc(F)cc2)CCCC1)N1CCN(C(=O)c2ccco2)CC1	0.381

Structure (SMILES)	z-score
COc1ccc(N2CCN(S(=O)(=O)c3ccc(Cl)c(C(F)(F)F)c3)CC2)cc1	0.388
O=C(Cc1ccc(F)cc1)Oc1ccc(C(=S)N2CCCC2)cc1	-0.715
Cc1ccc(S(=O)(=O)NCC(=O)OCC(=O)c2c(N)n(C)c(=O)n(C)c2=O)cc1	1.7
O=C1CCC(C(=O)Nc2ccc(OC(F)F)cc2)N1 (stereo unspecified)	0.952
Cc1cc(=O)n2c(c1C#N)SC1CCCCC12O (stereo unspecified)	-0.0971
Cc1nc(SCC(=O)Nc2c(C)n(C)n(-c3ccccc3)c2=O)[nH]c(=O)c1Cc1ccccc1	-0.651
C=CCN(Cc1cc(OC)ccc1OC)S(=O)(=O)N(C)C	-0.223
CC(C)(C)NC(=O)CN(Cc1cccs1)C(=O)c1csnn1	-0.338
Cc1cc2cc(CN(CC3CCCO3)C(=S)Nc3ccccc3)c(=O)[nH]c2cc1C (stereo unspecified)	-0.235
CN(C)c1cc(C(F)(F)F)nc(-c2ccccn2)n1	0.0157
C/C(=C\c1ccccc1)CN1CCC(C(=O)N2CCC(C)CC2)CC1	0.0588
O=C(Nc1nc(-c2ccccc2)cs1)c1cccnc1	-0.0109
Cc1ccc(S(=O)(=O)Nc2c(C)n(C)n(-c3ccccc3)c2=O)cc1C(=O)NCc1ccccn1	-0.336
COc1cc2c(=O)n(Cc3ccco3)c(=O)n(CC(=O)c3cccc(Br)c3)c2cc1OC	0.654
O=c1[nH]c2cc3c(cc2cc1C(c1nnnn1C1CCCC1)N1CCSCC1)OCCO3 (stereo unspecified)	-0.0721
CC(C)(C)c1ccc(C(=O)NC(=S)Nc2ccc(N3CCOCC3)cc2)cc1	-0.0299
O=C(Cn1cccc1C(=O)c1ccccc1)NCc1ccco1	0.237
CCOC(=O)Cc1csc(SCC(=O)NC2CCCCC2)n1	0.0608
O=C(/C=N\O)NCCCNCc1ccccc1	-0.171
CC(SC1CCCC1)C(=O)Nc1ccnn1C(C)C (stereo unspecified)	-0.159
CCOc1ccc(-c2nnc(N(CC)C(=O)C3CCC3)s2)cc1	0.0114
CC1CCCC(C)N1CC(C)(C)NS(=O)(=O)c1ccc(Cl)cc1 (stereo unspecified)	0.572
COc1ccccc1C(CCN(Cc1cccs1)C(C)=O)c1ccco1 (stereo unspecified)	-0.603

Structure (SMILES)	z-score
O=C(NN1C(=O)C2C3C=CC(C3)C2C1=O)c1ccncc1 (stereo unspecified)	-0.157
CCOC(=O)c1cc(-c2ccccc2)sc1NC(=S)Nc1cc(C)ccn1	0.395
CCC(C)(C)NC(=O)CN(CC1CCCO1)C(=O)CCC(=O)Nc1nccs1 (stereo unspecified)	-0.31
CCSc1nnc2c(Cl)cc(Cl)cn12	-0.233
CCCn1nnc(NCc2ccc(OCc3cccs3)c(OC)c2)n1	0.705
CN1CCN(S(=O)(=O)c2cccc(C(=O)Nc3sc4c(c3-c3nc5ccccc5[nH]3)CCCC4)c2)CC1	-0.27
COc1ccc(C2=NOC(C(=O)NCCCn3ccnc3)C2)cc1 (stereo unspecified)	-0.166
C/C(=N\O)c1c(C)c2ccccc2n1C	0.566
COc1ccccc1NS(=O)(=O)c1cc(NC(=O)c2ccc3c(c2)OCCO3)ccc1C	-0.423
Cc1ccccc1CN1CCN(CC(=O)NCc2ccco2)C1=O	0.0532
O=C1c2ccccc2C(=O)N1CCCC(=O)N1CCCc2ccccc21	0.145
O=C(N/N=C(\c1ccccc1)c1cccnc1)C(O)(c1ccccc1)c1ccccc1	-1.71
COc1ccc(S(=O)(=O)N(C)CC(=O)N2CCCCCC2)cc1OC	1.16
CCOc1ccccc1C(=O)N[C@H](C(=O)OCc1cc(=O)oc2cc(C)ccc12)C(C)C	-2.48
CC(=O)c1ccc(NCC(=O)N2CCN(c3ccccc3)CC2)cc1	-0.381
CCN(CC)C1=NC=CC(c2ccccc2)=CC1C (stereo unspecified)	0.079
C[n+]1cn(CC(O)COCc2ccccc2)c2ccccc21 (stereo unspecified)	-0.311
COc1ccc(C(=O)NCCCCCC(=O)O)cc1OC	-0.868
O=C(COC(=O)c1cccc(Oc2ccccc2)c1)NCc1ccco1	-0.177
COc1ccc(/C=N/NC(=O)C[n+]2ccccc2)c(OC)c1OC	-0.273
CC1(C)OC(=O)N(c2ccccn2)C1(C)O (stereo unspecified)	0.374
O=C(CCCCCn1c(=S)[nH]c2cc3c(cc2c1=O)OCO3)N1CCN(Cc2ccccc2)CC1	0.177
COc1ccc(/C(O)=C2/C(=O)C(=O)N(CCN(C)C)C2c2ccccn2)cc1OC (stereo unspecified)	0.0254

Structure (SMILES)	z-score
O=S(=O)(N1CCCCC1)N1CCCN(S(=O)(=O)N2CCCCC2)CC1	-0.684
c1ccn2c(Cc3nnc4ccccn34)nnc2c1	0.422
Cc1ccc(-c2noc(CSc3nnc(-c4ccncc4)n3-c3ccc(C)cc3)n2)cc1	-0.0672
CC(C)CNC(=O)c1cc(-c2ccc(Br)cc2)on1	0.671
COc1ccc(N2C(=O)C(Cl)=C(N(CCO)Cc3ccccc3)C2=O)cc1	0.147
O=C(CCC(=O)Nc1ccccc1)NNC(=O)c1ccco1	0.0483
Nc1ccc(Nc2ccccc2)c(Cl)c1	-1.03
CCCn1c(=O)c2ccccc2n2c(SCc3c(C(=O)OCC)oc4ccccc34)nnc12	-0.857
O=C(N=NC(=O)c1ccc2c(O)n(C3CCCCC3)c(O)c2c1)c1cccnc1	0.507
Cc1nn(C)cc1CNC(=O)c1cccc(F)c1	-0.127
C=CCn1c(=O)c2c3c(sc2n2c(Nc4ccc(C(=O)OCC)cc4)nnc12)CCCC3	-0.187
COc1nc(NS(=O)(=O)c2ccc(C)cc2)nc(C)c1Cl	0.0815
Cn1c(Sc2ccc([N+](=O)[O-])cc2C(F)(F)F)nnc1-c1ccccc1	-0.17
COc1cccc(-c2nc(CS(=O)(=O)c3ccccc3)no2)c1	-0.0979
O=C(NC(NC(=S)Nc1cccc(Cl)c1)C(Cl)(Cl)Cl)OCc1ccccc1 (stereo unspecified)	-0.198
Nc1ccc(Nc2nc(-c3ccncc3)cs2)cc1	0.173
COc1ccccc1NC(=O)COC(=O)c1ccccc1OCC(=O)Nc1ccc(SC(F)F)cc1	-0.519
O=C(NC(=S)N1CCN(Cc2ccc3c(c2)OCO3)CC1)c1ccc(Cl)cc1	active: 15.2
Oc1cccc(Nc2nc(NCC3CCCO3)c3ccccc3n2)c1 (stereo unspecified)	1.93
